# The list shows a part of the results. Single values are uncertain, as repeats are few or missing.
# Tested on: WM115
# Assay: cell count relative to DMSO control; melanoma cells; higher = more viable cells
# Details: library dose: low library concentration; 72 h
# 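Note: cell number obtained by counting DAPI-stained nuclei in high-throughput microscope images with image analysis software, screen run in 1,536-well plates.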
row,SMILES,cell count [%]
1,"Nc1ncn([C@H]2C[C@H](O)[C@@H](CO)O2)c(=O)n1 [decitabine] + Cc1ccc(NC(=O)c2cccc(N(C)C)c2)cc1NC(=O)c1ccc(O)cc1 [ZM336372] (first compound 0.1 µM, partner dose 2 µM)",87.1
2,"CC(=O)c1c(C)c2cnc(Nc3ccc(N4CCNCC4)cn3)nc2n(C2CCCC2)c1=O [palbociclib] + O=C(CCCCCCC(=O)Nc1ccccc1)NO [vorinostat] (first compound 0.04 µM, partner dose 0.08 µM)",78.4
3,"CC(=O)c1c(C)c2cnc(Nc3ccc(N4CCNCC4)cn3)nc2n(C2CCCC2)c1=O [palbociclib] + O=C(O)c1ccc(-c2c[nH]c3ncc(-c4ccccc4)cc23)cc1C1CCCC1 [GSK650394] (first compound 0.04 µM, partner dose 0.16 µM)",78.1
4,"Nc1ncn([C@H]2C[C@H](O)[C@@H](CO)O2)c(=O)n1 [decitabine] + CN(C)S(=O)(=O)c1ccc2c(c1)/C(=C/c1cc3c([nH]1)CCCC3)C(=O)N2 [SU6656] (first compound 0.1 µM, partner dose 0.4 µM)",69.7
5,"Nc1nc(F)nc2c1ncn2[C@@H]1O[C@H](CO)[C@@H](O)[C@@H]1O [fludarabine] + N#Cc1c(O)c2c(-c3ccc(-c4ccccc4O)cc3)csc2[nH]c1=O [A769662] (first compound 0.2 µM, partner dose 2 µM)",100
6,"CC(=O)c1c(C)c2cnc(Nc3ccc(N4CCNCC4)cn3)nc2n(C2CCCC2)c1=O [palbociclib] + COc1ccc2c(c1)CCC1C2CCC2(C)C(NCCCCCCN3C(=O)C=CC3=O)CCC12 [U73122] (first compound 0.04 µM, partner dose 0.4 µM)",77
7,"Nc1ccn([C@@H]2O[C@H](CO)[C@@H](O)C2(F)F)c(=O)n1 [gemcitabine] + C#Cc1cccc(Nc2ncnc3cc(OCCOC)c(OCCOC)cc23)c1 [erlotinib] (first compound 0.0004 µM, partner dose 0.8 µM)",93
8,"Nc1nc(F)nc2c1ncn2[C@@H]1O[C@H](CO)[C@@H](O)[C@@H]1O [fludarabine] + COc1ccc(COc2ccc(Cc3cnc(N)nc3N)cc2OC)cc1 [GW2580] (first compound 0.2 µM, partner dose 1 µM)",97.9
